Molecules are shown by their SMILES. Screen size: about 220,000 compounds; about 5,700 (2.6%) were called active. Roughly 18% stayed inconclusive and do not appear here. Calls come from the whole dose curve; as a rule, active = well fitted inhibition curve with a large enough effect; inconclusive = small, poorly fitted or top-dose-only effect; inactive = no such curve, though single readings can be large or run the other way. Some compounds were tested as several samples or in several runs, with calls that do not always agree. The source holds more than one record for some entries. Only these are listed. The source may hold further records. The values listed for one entry are repeated measurements across runs, samples, wells, individuals or studies. A tag in brackets gives the origin of a value. A, B and so on number the origins entry by entry.
Potency is the fitted concentration of half-maximal effect.

Sequence of UniProt Q9UGL1 (Q9UGL1 whole entry, looked up): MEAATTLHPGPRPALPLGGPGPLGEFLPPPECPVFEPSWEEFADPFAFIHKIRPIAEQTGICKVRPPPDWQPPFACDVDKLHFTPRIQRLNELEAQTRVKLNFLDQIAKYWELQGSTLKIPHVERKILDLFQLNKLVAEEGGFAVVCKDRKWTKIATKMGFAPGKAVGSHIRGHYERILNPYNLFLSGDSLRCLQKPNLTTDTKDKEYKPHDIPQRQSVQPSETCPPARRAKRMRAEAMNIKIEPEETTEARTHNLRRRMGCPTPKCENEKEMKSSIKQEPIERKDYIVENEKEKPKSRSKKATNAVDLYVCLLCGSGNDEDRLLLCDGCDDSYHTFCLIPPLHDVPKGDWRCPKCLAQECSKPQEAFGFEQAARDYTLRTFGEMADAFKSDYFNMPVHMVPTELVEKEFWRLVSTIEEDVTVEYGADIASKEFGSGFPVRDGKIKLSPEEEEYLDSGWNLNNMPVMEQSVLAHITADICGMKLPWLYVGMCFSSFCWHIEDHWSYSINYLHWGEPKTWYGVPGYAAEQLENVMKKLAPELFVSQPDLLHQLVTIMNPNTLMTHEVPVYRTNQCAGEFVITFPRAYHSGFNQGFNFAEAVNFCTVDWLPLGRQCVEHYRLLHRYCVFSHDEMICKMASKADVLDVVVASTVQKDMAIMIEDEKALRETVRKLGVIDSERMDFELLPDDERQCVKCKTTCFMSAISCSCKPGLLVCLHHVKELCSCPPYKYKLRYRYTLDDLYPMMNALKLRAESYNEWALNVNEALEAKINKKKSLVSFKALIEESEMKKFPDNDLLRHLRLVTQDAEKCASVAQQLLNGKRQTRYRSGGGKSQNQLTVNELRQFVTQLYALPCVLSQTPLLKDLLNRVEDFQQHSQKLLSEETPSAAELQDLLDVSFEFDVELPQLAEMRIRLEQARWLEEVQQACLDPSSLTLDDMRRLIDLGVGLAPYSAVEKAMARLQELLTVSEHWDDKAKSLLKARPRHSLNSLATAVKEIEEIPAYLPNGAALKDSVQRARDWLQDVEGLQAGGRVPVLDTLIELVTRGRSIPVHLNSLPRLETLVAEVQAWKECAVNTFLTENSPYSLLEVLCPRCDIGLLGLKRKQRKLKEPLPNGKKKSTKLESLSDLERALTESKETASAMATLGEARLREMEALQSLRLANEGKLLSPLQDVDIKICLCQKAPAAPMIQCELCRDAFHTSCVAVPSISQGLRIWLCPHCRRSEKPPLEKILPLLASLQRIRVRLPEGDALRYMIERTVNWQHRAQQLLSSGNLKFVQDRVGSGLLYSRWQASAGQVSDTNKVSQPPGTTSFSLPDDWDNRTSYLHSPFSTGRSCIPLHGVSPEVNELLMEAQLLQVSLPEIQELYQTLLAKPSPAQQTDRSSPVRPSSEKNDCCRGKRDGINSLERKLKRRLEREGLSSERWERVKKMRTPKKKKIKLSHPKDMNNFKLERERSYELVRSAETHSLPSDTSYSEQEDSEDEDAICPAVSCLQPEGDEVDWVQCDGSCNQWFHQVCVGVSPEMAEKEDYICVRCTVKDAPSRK

In this assay the target is Lysine-specific demethylase 5B (Homo sapiens) (UniProt Q9UGL1). The assay is described as follows: Primary screen for KDM5B Histone Demethylases FDH-coupled qHTS. Note: nearly all actives have a fitted effect of over 70% in size. The conditions noted are these: FDH-coupled NADH fluorescence (FDH is formaldehyde dehydrogenase); series mostly up to 57.7 µM. From the text:
Assay Submitter (PI): Qin Yan, Ph.D. (Yale University) and Xiaodong Cheng, Ph.D. (MD Anderson) This project was funded as part of the NCI NEXT Program and Chemical Biology Consortium (CBC) The histone demethylases, KDM5A and KDM5B catalyze the demethylation of lysine 4 on histone H3 (H3K4me3/2). They are overexpressed in a variety of cancers and have been implicated in cancer cell growth, metastasis, drug resistance, and tumor growth. KDM5A is amplified and overexpressed in breast and gastric cancer; and is translocated in leukemia. While KDM5B is highly expressed in human mammary tumors and breast cancer cell lines, but not in normal adult breast tissue. […]
Materials: 1536-well Black, solid bottom, medium binding assay plate is purchased from Greiner Bio-one. […] The assay plate is incubated for 10 min at room temperature followed by addition of 1uL substrate mix (buffer + 100uM ascorbic acid, 50uM ferrous ammonium sulfate, 12.5uM H3K4Me3, 25uM a-ketoglutarate, 0.25 mM NAD+, 0.25 U/mL formaldehyde dehydrogenase using the FRD yielding a total reaction volume of 4 uL. Initial fluorescence (Read1) is detected using the PerkinElmer ViewLux plate reader equipped with 340 nm excitation and 450 nm emission filters. The final fluorescence (Read2) signal is obtained after 30 min of room temperature incubation. Delta RFU is calculated (Read2 - Read1) and is used to generated dose response curves.
For the molecule `COc1ccc(-c2nc3ccncc3[nH]2)cc1`, the Potency entry was “active: 126 µM [sample A] and inactive [sample B]”.

`COCCNC(=O)c1nc(-c2cc(Cl)cc(Cl)c2)c2ccccn12`: the Potency result was “inactive [sample A] and active: 25.1 µM [sample B]”.

The record behind these values is PubChem BioAssay AID1347165 (National Center for Advancing Translational Sciences (NCATS), 2019).
